Reference: PubChem BioAssay AID1508642 (National Center for Advancing Translational Sciences (NCATS), 2021)
Out of some 43,000 compounds screened, about 200 (0.47%) were called active. Another 12% or so got no clear call; they are omitted. Calls come from the whole dose curve; as a rule, active = well fitted cell-killing curve with a large enough effect; inconclusive = small, poorly fitted or top-dose-only effect, or effect the other way; inactive = flat fitted curve, though single readings scatter. Some of the results follow.

Experiment: Cell viability qHTS assay in S16 Pmp22-F2sN cells; note: nearly all actives have a fitted effect of over 65% in size
Conditions: S16 Pmp22-F2sN Schwann cells (luciferase reporters placed in the Pmp22 gene) viability, CellTiter-Glo, 24 h; series mostly up to 57.5 µM; activity change, negative = cytotoxicity: at the top concentration
Summary of the method: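 CellTiter-Glo counter-screen, qHTS, 1536-well. Cells: S16(c9) Pmp22-F2sN, 500-1,000/well in DMEM + 10% FBS. Cpd 23 nL pin transfer, 24 h, 37C/5% CO2. Read: luminescence, CCD imager.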
% is set by controls: 0 for no effect and ±100 for the full control effect; potency is the fitted concentration of half-maximal effect.

SMILES	activity change, negative = cytotoxicity	Potency
CC(C)COc1ccc(C(=O)N(Cc2ccc(N(C)C)cc2)Cc2ccco2)cc1	inactive: -6.07%	–
CC1CCCCN1c1nnc(NC(=O)Nc2ccccc2F)s1 (stereo not drawn)	inactive: -1.76%	–
CCC(Cn1nnc2ccccc2c1=O)NC(=O)Nc1ccc(C)c(C)c1 (stereo not drawn)	inactive: -9.19%	–
Cc1ccc(-c2nc(SCC(=O)NCc3ccco3)c3c(=O)n(C)c(=O)n(C)c3n2)cc1	inactive: -22%	–
CC(C)c1ccc(NC(=O)Cn2c(=O)n(CCc3ccccc3)c(=O)c3ccccc32)cc1	inactive: 3.08%	–
CC(C)c1cccc(C(C)C)c1NC1=NS(=O)(=O)c2ccccc21	inactive: -1.75%	–
O=C(Cc1ccccc1)Nc1cccc(-c2cn3cccnc3n2)c1	inactive: 1.71%	–
Cc1ccc(Cn2c(=O)n(CCCC(=O)NCc3ccccc3Cl)c(=O)c3ccccc32)cc1	inactive: -0.284%	–
COc1ccc(OC)c(NC(=O)c2c(NCc3cccs3)sc3c2CCCC3)c1	inactive: 4.28%	–
COC(=O)c1cnc(N2CCN(c3ccccc3F)CC2)c2ccccc12	inactive: 3.13%	–
Cc1ccc(NC(=O)C2CCN(c3nc4ccccc4[nH]3)CC2)c(C)c1	inactive: 13.8%	–
COCCN1C(=O)c2[nH]nc(-c3cc(C)ccc3O)c2C1c1ccc(C(C)C)cc1 (stereo not drawn)	inactive: -0.0049%	–
CCc1ccccc1NC(=O)c1cc(S(=O)(=O)N2CCCC2)cn1C	inactive: 5.07%	–
Cc1cccc(N2CCN(C(=O)CCc3c(C)nc4ncnn4c3C)CC2)c1C	inactive: 3.97%	–
CCOc1ccccc1NC(=O)c1cc2c(=O)oc3ccccc3c2s1	inactive: -4.97%	–
O=C(c1ccc(CSc2nc3ccncc3n2Cc2cccc(F)c2)cc1)N1CCCCCC1	inactive: -0.942%	–
Cc1cncn1CCc1nc2c3ccccc3nc(SCC(=O)Nc3cccc(Cl)c3)n2n1	–	active: 28.2 µM
Cc1ccc(CNS(=O)(=O)c2cc3c(cc2C)NC(=O)CO3)cc1	inactive: -8.4%	–
COc1ccc(OC)c(NC(=O)CN2C(=O)COc3ccc(S(=O)(=O)NC4CCCC4)cc32)c1	inactive: 10.5%	–
CN(CC(=O)Nc1cccc(C(F)(F)F)c1)S(=O)(=O)c1cccs1	inactive: 4.28%	–
O=C(Cn1c(-c2cccs2)cc2ccccc21)NCCc1ccc(Cl)cc1	inactive: -14.9%	–

SMILES	activity change, negative = cytotoxicity	Potency
CCOc1ccc(S(=O)(=O)Nc2ccc3c(c2)N(C(C)=O)CCC3)cc1	inactive: 1.01%	–
Cc1nc2c(c(C)nn2-c2ccccc2)c(C)c1CCC(=O)NCCc1ccccc1	inactive: -10%	–
Cn1nnc2c(NCc3ccccc3Cl)ncnc21	inactive: -22.5%	–
CCCC(=O)Nc1nnc2n1CCS2	inactive: 8.22%	–
O=C(CSc1nc2c(c(=O)[nH]1)CN(Cc1ccc3c(c1)OCO3)CC2)Nc1cccc(Cl)c1	inactive: 5.49%	–
Cc1cccc(Cn2cc3c(=O)n(CC(=O)Nc4ccc(C)c(F)c4)nc-3c3cc(F)ccc32)c1	inactive: 7.16%	–
COc1ccc(CC(=O)NCc2nc3cccnc3n2Cc2ccc(C)cc2)cc1OC	inactive: 5.53%	–
CCOC(=O)c1noc2ncnc(N3CCC(C)CC3)c12	inactive: -17.1%	–
CCOc1ccc(Oc2nc(NC)nc(N3CCOCC3)n2)nn1	inactive: -4.41%	–
O=c1oc2ccc(Br)cc2cc1-c1csc(-c2ccccc2)n1	inactive: 5.66%	–
CCOC(=O)c1cc(NC(=O)c2ccc(C)cc2)c(=O)n2c1oc1ccc(Cl)cc12	inactive: 3.45%	–
Cc1ccc(N2CC(NC(=O)c3ccc(S(=O)(=O)N4CCCCC4)cc3)CC2=O)cc1 (stereo not drawn)	inactive: 2.95%	–
COC(=O)c1ccc(NC(=O)c2cc(=O)c3ccc(C)cc3o2)cc1	inactive: -18%	–
COc1ccc(N2CC(NC(=O)c3cc4ccccc4o3)CC2=O)cc1OC (stereo not drawn)	inactive: 10.3%	–
CCc1cccc(NS(=O)(=O)c2c(C)nc3sc(CC)nn3c2=O)c1	inactive: -17.3%	–
COc1cc(/C=C(\C#N)C(=O)Nc2ccc(C)cc2)ccc1OCc1cc(=O)n2nc(C)sc2n1	inactive: -11.6%	–
Cc1ccc(NC(=O)Cn2c(=O)n(CCc3ccccc3)c(=O)c3c4c(sc32)CCCC4)c(C)c1	inactive: 10.9%	–
CN(C(=O)C1=CC(c2ccc3c(c2)OCO3)=NS(=O)(=O)N1C)c1ccccc1	inactive: 2.47%	–
Cc1ccc(-c2noc(CSc3nnc(Cc4ccccc4)n3-c3cccc(C)c3)n2)cc1	inactive: -1.96%	–
O=C(NCC(c1cccnc1)N1CCc2ccccc2C1)C(=O)Nc1ccc(Cl)cc1 (stereo not drawn)	inactive: -23.2%	–
Cc1cc(C)c(NC(=O)Cn2c(=O)n(Cc3ccco3)c(=O)c3ccc(C(=O)NC4CCCC4)cc32)c(C)c1	inactive: 13.6%	–

SMILES	activity change, negative = cytotoxicity	Potency
Cn1nnc2c(NCCc3ccccc3)ncnc21	inactive: -11%	–
Cc1ccc(NC(=O)CSc2cn(CC(=O)N3CCCCCC3)c3ccccc23)cc1	inactive: 1.58%	–
CC(=O)c1cccc(NC(=O)c2c(N3CCCC3=O)c3cc(F)ccc3n2C)c1	inactive: 10.3%	–
CCOCCCNC(=O)C(c1ccc(C)cc1)N(Cc1cccs1)C(=O)c1ccc(NC(C)=O)cc1 (stereo not drawn)	inactive: -17%	–
CCSc1ncc(Cl)c(C(=O)Nc2c(C(=O)c3ccc(C)c(F)c3)oc3ccccc23)n1	inactive: -9.93%	–
COc1ccccc1NC(=O)c1c(NC(=O)c2ccco2)sc2c1CCC(C(C)(C)C)C2 (stereo not drawn)	inactive: 18.5%	–
CC(C)c1ccc(NC(=O)c2cccc3c2C(=O)N(C2CCCCC2)C3)cc1	inactive: -1.66%	–
Cc1ccc2c(c1)N(CC(=O)NCc1ccccc1Br)C(=O)c1cccnc1O2	inactive: 0.374%	–
O=C(CCS(=O)(=O)c1nc(-c2ccc3c(c2)OCO3)cc(C(F)(F)F)n1)Nc1ccccc1F	inactive: 11.8%	–
CCc1cccc(-n2nnc(-c3nc(-c4ccccc4Cl)no3)c2N)c1	inactive: 8.97%	–
COc1ccc(Nc2nc3ccccc3c3nnc(C)n23)cc1Cl	inactive: -3.13%	–
COc1ccccc1CN1COc2ccc3c(oc(=O)c4ccccc43)c2C1	inactive: 14.4%	–
CCOC(=O)C1CCC(CN(Cc2ccc(Cl)cc2)S(=O)(=O)c2ccc(F)c(C(=O)Nc3cccc(F)c3)c2)CC1 (stereo not drawn)	inactive: -8.46%	–
COc1ccccc1Nc1cc(C(=O)NC2CCCC2)c2ccccc2n1	inactive: 15.8%	–
COc1ccc(/C=C/C(=O)Nc2sc3c(c2C(N)=O)CCCC3)cc1	inactive: 16.6%	–
COc1ccc(S(=O)(=O)N2CCCCC2)cc1C(=O)Nc1cccc(C(F)(F)F)c1	inactive: 2.04%	–
CCOC(=O)c1cnc(NCc2ccccc2OC)c2ccccc12	inactive: -13.5%	–
COc1cccc2sc(=NC(=O)c3ccc(S(=O)(=O)N4CCCCC4)cc3)n(C)c12	inactive: 8.5%	–
CCn1c(=O)cc(SCC(=O)NCCc2ccc(Cl)cc2)c2ccccc21	inactive: -3.69%	–
Cc1ccc(CNC(=O)CCCCCn2c(=O)c3sccc3n(CC(=O)N(C)c3ccccc3)c2=O)cc1	inactive: 3.69%	–
Cc1ccc(C(=O)Nc2ccc3oc(-c4ccc(C(C)(C)C)cc4)nc3c2)cc1	inactive: 3.33%	–
